# Whole data set: some 110,000 compounds, median “z-score” near -0.1, cut for the highest 2% near 2. The list shows a part of the results.
# Target: Metabotropic glutamate receptor 8 (Rattus norvegicus) (UniProt P70579)
# Experiment: rat mGluR8 modulators via GIRK flux, primary screen, cell-based, thallium flux, HTS (AID 488969)
# Conditions: HEK293 rat mGluR8, GIRK (G protein-gated inwardly rectifying potassium channel) thallium flux, FluoZin2; at 10 µM; stronger effect = higher value; submaximal glutamate (EC20) added with thallium
# Sequence of UniProt P70579 (P70579 whole entry, looked up): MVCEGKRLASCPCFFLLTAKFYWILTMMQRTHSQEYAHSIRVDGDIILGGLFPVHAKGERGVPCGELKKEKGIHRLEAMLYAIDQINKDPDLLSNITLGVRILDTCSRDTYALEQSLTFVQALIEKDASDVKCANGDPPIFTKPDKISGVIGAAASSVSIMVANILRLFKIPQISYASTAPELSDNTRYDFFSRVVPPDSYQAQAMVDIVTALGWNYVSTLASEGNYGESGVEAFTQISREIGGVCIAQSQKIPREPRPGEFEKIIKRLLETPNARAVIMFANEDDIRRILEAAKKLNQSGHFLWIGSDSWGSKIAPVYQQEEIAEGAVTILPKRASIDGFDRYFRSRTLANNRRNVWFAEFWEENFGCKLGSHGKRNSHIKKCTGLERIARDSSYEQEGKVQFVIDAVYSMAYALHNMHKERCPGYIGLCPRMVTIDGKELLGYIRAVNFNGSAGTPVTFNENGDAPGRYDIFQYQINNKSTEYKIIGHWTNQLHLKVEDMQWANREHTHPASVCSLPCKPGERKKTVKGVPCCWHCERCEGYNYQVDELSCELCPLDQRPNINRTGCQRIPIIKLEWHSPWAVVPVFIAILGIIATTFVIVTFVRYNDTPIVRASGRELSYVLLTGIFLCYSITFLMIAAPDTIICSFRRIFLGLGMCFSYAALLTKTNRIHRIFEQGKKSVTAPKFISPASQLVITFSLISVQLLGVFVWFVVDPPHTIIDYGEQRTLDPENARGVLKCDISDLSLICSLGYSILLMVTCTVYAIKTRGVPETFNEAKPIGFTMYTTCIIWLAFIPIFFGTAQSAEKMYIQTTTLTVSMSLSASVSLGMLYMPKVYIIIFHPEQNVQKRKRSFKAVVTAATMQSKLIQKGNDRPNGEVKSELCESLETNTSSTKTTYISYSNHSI
row,SMILES,z-score
1,CCOC(=O)c1ccc(CSc2nnc(-c3ccncc3)n2N)cc1,-0.062
2,COC(=O)C1=CNC=C(C(=O)OC)C1c1ccccc1Cl,-1.54
3,Cc1nc(C)c(C(=O)N/N=C/c2cn(C)c3ccccc23)s1,0.0943
4,CCCCCCC(=O)c1c(C)[nH]c(C(=O)OCC)c1C,0.027
5,O=C(CN1CCN(CC(=O)Nc2ccccc2C(F)(F)F)CC1)Nc1ccccc1F,-0.47
6,CC(=O)c1cc2c(cc1NC(=O)CN1CCC(Cc3ccccc3)CC1)OCO2,-0.516
7,O=C(Nc1ccccc1)NC1(C(=O)NCCCN2CCOCC2)CCCCC1,0.117
8,Cc1cccc(NC(=S)NCCN2CCOCC2)c1C,-0.235
9,O=C(COC(=O)c1cccs1)c1ccc2c(c1)OCCO2,-0.579
10,CC(=O)C1=C(O)C(=O)N(Cc2ccco2)C1c1ccc(F)cc1 (configuration not stated),-1.8
11,O=c1c(Cl)c(Cl)cnn1-c1ccccc1,-0.878
12,O=C(c1ccco1)N1CCn2c1nc1ccccc12,0.111
13,COc1ccc(C)cc1NC(=O)C(Sc1nnc(-c2cccs2)o1)c1ccccc1 (configuration not stated),0.187
14,O=C(O)CCc1ccc(-c2ccc(F)cc2)n1NC(=O)c1ccco1,0.168
15,CCCc1c(O)c2ccccc2[nH]c1=O,0.116
16,O=C(OCc1ccccc1F)c1ccc2c(c1)OCCO2,-0.955

row,SMILES,z-score
1,Cc1[nH]nc(N=CC2=C(O)CC(C)(C)CC2=O)c1-c1ccc(Cl)cc1,0.222
2,O=C(c1cnn2c(C(F)F)cc(-c3ccccc3)nc12)N1CCCc2ccccc21,-0.367
3,COc1ccccc1NCCC(=O)OCC(=O)NC1CCCCCC1,0.0591
4,Cc1ccn(C(=O)c2cc3c(C)nn(-c4ccccc4)c3s2)n1,-0.42
5,CCN(CC)C(=O)CSc1nc2ncc(Br)cc2[nH]1,-0.274
6,O=C(Nc1cccc(O)c1)c1noc2c1CCc1ccccc1-2,-0.219
7,COc1cc(NC(=S)NCCCN2CCOCC2)cc(OC)c1,-0.0511
8,C1CSC2(N1)C1CC3CC(C1)CC2C3 (configuration not stated),-0.916
9,Cc1ccc2nc(N(CCCN(C)C)C(=O)c3ccc4c(c3)CCCC4)sc2c1,-1.29
10,O=C(NCc1cccc(Cl)c1)c1ccc(S(=O)(=O)Nc2cccc(C(F)(F)F)c2)cc1,0.186
11,COc1ccc(S(=O)(=O)N2CCCC(C(=O)NCc3ccccn3)C2)cc1Cl (configuration not stated),0.0643
12,COc1ccc(NC(=O)CCNC(=O)Cn2cnc3ccccc3c2=O)c(OC)c1,-0.512
13,CCOC(=O)COn1c(SCC(=O)OCC)nc2ccccc2c1=O,0.143
14,CNC(=O)CCC(=O)Nc1ccc(C(=O)OC)cc1,-0.196
15,N=C1C(=O)OCC1c1cc(Cl)ccc1NC(=O)Nc1ccccc1 (configuration not stated),0.0546
16,O=C(Cn1nc(Cc2cccnc2)c2ccccc2c1=O)N1CCN(C(=O)c2ccco2)CC1,-0.426

# From PubChem BioAssay AID488969 (Vanderbilt High Throughput Screening Facility, 2010)
